The densities may have been worked out from excess volumes.
Assay: xn = mol fraction of the nth substance listed
Details: 298.15 K, 101 kPa

SMILES: CC(C)=O + CC(=O)[O-].CCCC[n+]1ccn(C)c1
- mass density (x1 = 1): 784.8 kg/m3

SMILES: CC(=O)[O-].CCCC[n+]1ccn(C)c1 + CC(C)=O
- mass density (x2 = 0): 1050.8 kg/m3
- mass density (x2 = 0.2024): 1031.8 kg/m3
- mass density (x2 = 0.3155): 1018.3 kg/m3
- mass density (x2 = 0.49): 989.9 kg/m3
- mass density (x2 = 0.5915): 968.5 kg/m3
- mass density (x2 = 0.689): 942.1 kg/m3
- mass density (x2 = 0.8036): 901 kg/m3
- mass density (x2 = 0.8357): 886.8 kg/m3

SMILES: CC[n+]1ccn(C)c1.N#C[S-] + CC(C)=O
- mass density (x2 = 0): 1115.1 kg/m3
- mass density (x2 = 0.1125): 1102 kg/m3
- mass density (x2 = 0.1889): 1089.9 kg/m3
- mass density (x2 = 0.3058): 1072.2 kg/m3
- mass density (x2 = 0.3917): 1055.8 kg/m3
- mass density (x2 = 0.5127): 1028 kg/m3
- mass density (x2 = 0.6): 1003.1 kg/m3
- mass density (x2 = 0.6892): 972.5 kg/m3
- mass density (x2 = 0.7842): 930.7 kg/m3
- mass density (x2 = 0.9008): 864.2 kg/m3

SMILES: CC(C)=O + CC[n+]1ccn(C)c1.N#C[S-]
- mass density (x1 = 1): 784.8 kg/m3

SMILES: CC(=O)[O-].CC[n+]1ccn(C)c1 + O
- mass density (x2 = 0): 1099 kg/m3
- mass density (x2 = 0.1306): 1100.6 kg/m3
- mass density (x2 = 0.2326): 1101.8 kg/m3
- mass density (x2 = 0.2865): 1103.6 kg/m3
- mass density (x2 = 0.3671): 1104.9 kg/m3
- mass density (x2 = 0.4047): 1105.5 kg/m3
- mass density (x2 = 0.4896): 1106.8 kg/m3
- mass density (x2 = 0.5258): 1107.2 kg/m3
- mass density (x2 = 0.5507): 1107.6 kg/m3
- mass density (x2 = 0.7151): 1105.7 kg/m3
- mass density (x2 = 0.7317): 1105.5 kg/m3
- mass density (x2 = 0.8099): 1098.6 kg/m3
- mass density (x2 = 0.9053): 1071.8 kg/m3
